In PubChem BioAssay AID1794842 (National Center for Advancing Translational Sciences (NCATS), 2023):
Screen size: about 2,800 compounds; fewer than 10 were called active. The call rests on the fitted dose curve; in most records, active means well fitted curve in the direction sought with a large enough effect; inconclusive means small, poorly fitted or top-dose-only effect, or another doubt; inactive means no such curve, though single readings can be large or run the other way. This is one part of the list.

target: Metallo-beta-lactamase type 2 (Klebsiella pneumoniae) (UniProt C7C422); experiment: qHTS to identify inhibitors of the New Delhi Metallo-beta-lactamase (NDM): Meropenem screen against the machine-based learning selections.; further: % of control where 0% means no effect; conditions: Purified NDM-1, meropenem hydrolysis, absorbance 300 nm; at 38.4 µM (top of the series) unless noted
In short: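 Hydrolysis by 2 nM NDM-1 was followed by absorbance after >30 min compound preincubation in HEPES pH 7.0 buffer with 1 uM Zn2SO4. For nitrocefin (16.7 uM, 15 min, 485 nm) and meropenem (50 uM, 30 min, 300 nm), each substrate ran on separate plates.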

Chain of UniProt C7C422 (C7C422 whole entry, looked up): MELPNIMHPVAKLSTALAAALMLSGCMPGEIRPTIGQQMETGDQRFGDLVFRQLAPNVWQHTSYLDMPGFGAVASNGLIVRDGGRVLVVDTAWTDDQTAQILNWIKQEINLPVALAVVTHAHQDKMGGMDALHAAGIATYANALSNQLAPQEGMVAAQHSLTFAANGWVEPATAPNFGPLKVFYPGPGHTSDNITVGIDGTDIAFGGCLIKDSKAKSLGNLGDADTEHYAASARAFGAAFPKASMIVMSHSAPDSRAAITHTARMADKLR

| SMILES | activity change, negative = inhibition |
| --- | --- |
| O=C(NC[C@H]1OC[C@@H](NC2CCCCC2)[C@@H]1O)C1CCCC1 | inactive: 0.318% [at 57.5 µM] |
| CN(C)c1ccc(CC(=O)N2CC[C@@](C)(O)[C@@H](O)C2)cc1 | inactive: 2.59% |
| Nc1nc(C2CC(NC(=O)c3csc4c3CCCC4)C2)cc(=O)[nH]1 (centres undefined) | inactive: 0.72% |
| CN(Cc1ccccc1)Cc1cc(C[C@H]2CNCC[C@H]2CC(=O)NCc2cccs2)no1 | inactive: -1.69% |
| COc1ccc(CN2C(=O)O[C@@H]3CN(C4CCCCC4)C[C@@H]32)cc1OC | inactive: 2.5% |
| CC1(C)C[C@H](NC(=O)c2ccccc2)[C@@]2(CCC(=O)NCCN3CCOCC3)CC[C@](C)(O)C[C@@H]12 | inactive: 0.402% |
| CCC(C)NC(=O)CCN(CC)C(=O)c1cc(C)oc1C (centres undefined) | inactive: -3.84% |
| COc1cc(=O)n2c(c1C(=O)Nc1ccc(F)cc1F)CCCC2 | inactive: -2.11% |
| CC(NCc1cn(CCC(N)=O)c2ccccc12)c1ccccc1-n1cccn1 (centres undefined) | inactive: -0.612% |
| Cn1cc(C(=O)N2CCCC(c3nnnn3C)C2)cn1 (centres undefined) | inactive: 1.2% |
| CO[C@@H]1CO[C@H]2[C@@H]1OC[C@@H]2NS(C)(=O)=O | inactive: 3.78% [at 76.7 µM] |
| COc1ccc(Cl)cc1-c1ccc2c(c1)C(=O)N1CC[C@H](NC(=O)C3CCCC3)[C@H]1C(=O)N2 | inactive: 1.26% |
| O=c1c2nc(-c3ccc(O)c(F)c3)ccc2ncn1-c1ccccc1 | inactive: 17.4% [at 57.5 µM] |
| O=C(Cc1c[nH]c2ncc(-c3cccnc3)cc12)NCc1cccc(F)c1 | inactive: 2.57% [at 57.5 µM] |
| c1ccc(Nc2cc3c(cn2)CN(Cc2ccccn2)CCN3)cc1 | inactive: 29.1% [at 57.5 µM] |
| CC(C)NC(=O)c1ccnc(-c2nnc3ccc(Nc4ccccc4)nn23)c1 | inactive: 1.69% [at 57.5 µM] |
| CC(CN1CCCC1)CN(C)c1nc(CCN)nc2ccccc12 (centres undefined) | inactive: 18.8% |
| COc1ccc(CNC[C@H]2Cn3ccnc3CO2)cn1 | inactive: 0.89% [at 76.7 µM] |
| COc1ccc(C(=O)NCc2nnc3ccc(-c4ccc(C)c(C)c4)nn23)cc1 | inactive: 5.79% |
| O=C(Cc1cccc(Cl)c1)N1CCCC(c2nn(-c3ccccc3)c(=O)[nH]2)C1 (centres undefined) | inactive: -0.0731% |

| SMILES | activity change, negative = inhibition |
| --- | --- |
| CCn1cc(S(=O)(=O)N2CCCCC2c2nc(-c3ccncc3)n[nH]2)cn1 (centres undefined) | inactive: 1.17% |
| COCc1nc(C2CC(N)C2)cc(N2CCC(Cn3cccn3)CC2)n1 (centres undefined) | inactive: 64.5% |
| CN(C)c1ccc(-c2nnc([C@H]3CCN(Cc4ccco4)C3)o2)cc1 | inactive: 13.4% [at 57.5 µM] |
| Oc1ccccc1CN1CCC(O)(c2csc(CN3CCOCC3)n2)CC1 | inactive: 0.483% [at 57.5 µM] |
| COCCNC(=O)c1ccc2c(c1)N(C)C(CC(=O)N1CCC(C)CC1)CO2 (centres undefined) | inactive: 0.152% |
| CN(C)C[C@H]1O[C@@H](CO)[C@@H](O)[C@H]1N1CCN(c2ccc(F)cc2)CC1 | inactive: 43.7% |
| COC(=O)c1ccc2nc(C[C@@H]3C[C@@H](C(C)C)[C@H](CNC(=O)CC4(CC(=O)O)CCCC4)C=C3C)[nH]c2c1 | inactive: 49% |
| O=S(=O)(NC[C@H]1O[C@@H](CO)[C@@H](O)[C@H]1N1CCN(c2ccc(F)cc2)CC1)c1ccc(F)cc1 | inactive: 54.3% |
| CCN(CC)Cc1nc(C2(O)CCN(C(=O)COc3ccccc3)CC2)cs1 | inactive: -1.77% [at 57.5 µM] |
| Cc1nn(-c2ccc(C(F)(F)F)cc2)c(C)c1[C@@H]1C=C[C@@H](NC(=O)C2CCCCC2)C1 | inactive: 1.38% [at 57.5 µM] |
| Cc1nc([C@@H]2CN(C3CCN(CCc4ccccc4)CC3)C[C@H]2C(N)=O)n[nH]1 | inactive: 1.53% |
| Clc1ccccc1C1(c2ccnc(NCCn3cccn3)n2)CCNCC1 | inactive: 48.6% |
| COC(=O)[C@@H](C)NC(=O)[C@H]1CN(C(=O)c2cccnc2)CCN1S(C)(=O)=O | inactive: 0.0432% [at 57.5 µM] |
| COc1ccc(OC)c(CN2CCC3(CC2)Nc2ccccc2NC3=O)c1 | inactive: -3.33% |
| CCCc1ncncc1C(=O)N1CCCC2(CC1)CNC(=O)O2 (centres undefined) | inactive: 1.69% |
| COC(=O)[C@@H]1Cc2ncn(Cc3ccccc3)c2CN1S(=O)(=O)c1cccs1 | inactive: 1.28% [at 57.5 µM] |
| CC1=C[C@@H](CC#N)[C@H](C(C)C)C[C@H]1CC(=O)NC1CCCCC1 | inactive: 1.25% [at 57.5 µM] |
| O=C(c1cccc2[nH]ccc12)N1CCC([C@@H]2CNC[C@H]2CO)CC1 | inactive: 16.5% |
| O=C1OC[C@@H]2CCN(Cc3ccc(Cl)cc3)Cc3ccc(F)cc3N12 | inactive: 0.972% [at 57.5 µM] |
